Values joined by “and” are separate entries in the source; they are usually repeats but may differ in a detail not shown here. Identical values can stand only once. About 64,000 (15%) of roughly 420,000 compounds were called active. The inconclusive results got no clear call from the source; some entries with a clear call stand among them for comparison. Calls come from the whole dose curve; as a rule, active = well fitted inhibition curve with a large enough effect; inconclusive = small, poorly fitted or top-dose-only effect; inactive = flat fitted curve, though single readings scatter. Potencies of inconclusive entries are doubtful fits and often do not repeat. The source holds several records for some structures; these can differ, active in one and inactive in another.
assay: qHTS for Inhibitors of human tyrosyl-DNA phosphodiesterase 1 (TDP1): qHTS in cells in absence of CPT; settings: DT40 Tdp1-/- hTDP1 cells, no CPT, ATP luminescence, 48 h; activity change, negative = growth inhibition: at 46.2 µM (top of the series) unless noted; note: nearly all actives have a fitted effect of over 55% in size
Method in brief: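 Stably hTDP1-transfected Tdp1-null chicken DT40 cells were treated with library compounds minus camptothecin and grown for at least 48 hr at 37 °C, after which cellular ATP was quantified by luminescence.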
% is set by controls: 0 for no effect and ±100 for the full control effect; potency is the fitted concentration of half-maximal effect; tags give direction and shape of the fitted curve.

| SMILES | activity change, negative = growth inhibition | Potency |
| --- | --- | --- |
| Nn1cnnc1SCC(=O)N1CCc2ccccc2C1 | inactive: -10.3% | – |
| Cc1cc2c(c3oc(=O)c4ccccc4c13)CN(Cc1ccc(F)cc1)CO2 | – | inconclusive: 16.4 µM [inhibitor, single point] |
| CCNC(=O)C1(C)CCCN(Cc2ccc(-c3ccccn3)cc2)C1 (centres undefined) | inactive: -28% | – |
| Cc1ccc(C)c(S(=O)(=O)N2CCN(C(=O)[C@H](C)N3C(=O)C4CC=CCC4C3=O)CC2)c1 (some centres undefined) | inactive: -27.1% | – |
| CC(=O)Nc1c(Cl)cc2c(c1Cl)Cc1ccccc1-2 | – | inconclusive: 25.9 µM [inhibitor, single point] |
| CC(=O)N1CCC(=NNc2ncc(C(F)(F)F)cc2Cl)CC1 | – | inconclusive: 29.1 µM [inhibitor, single point] |
| CCC1CCCCN1CCCNC(=O)CN1C(=O)CSc2ccc(S(=O)(=O)N3CCC(C)CC3)cc21 (centres undefined) | – | inactive and active: 23.1 µM |
| Cc1cc(C)c2oc(-c3cccc(NC(=O)c4ccco4)c3)nc2c1 | inactive: -88.5% | – |
| O=C(Oc1c(CN2CCOCC2)cc(Cl)c2cccnc12)c1ccccc1 | – | inconclusive: 25.9 µM [inhibitor, single point] |
| O=C(N/N=C/c1c(O)ccc2ccccc12)c1ccc(CO)nc1 | – | active: 4.61 µM |
| COc1ccccc1OCCNS(=O)(=O)c1ccc2oc3ccccc3c2c1 | – | inconclusive: 25.9 µM [inhibitor, single point] |
| C[C@H](CO)N1C[C@H](C)[C@@H](CN(C)C(=O)Nc2cc(F)ccc2F)Oc2ncc(-c3cccc(F)c3)cc2C1=O | – | inconclusive: 20.6 µM [inhibitor, single point] |
| Cc1cnc(=O)[nH]c1SCc1ccccc1F | inactive: -3.45% | – |
| CCCNC(=O)COc1coc(CN2CCN(Cc3ccccc3)CC2)cc1=O | inactive: 11.7% | – |
| COc1cccc(NC(=O)c2ccncc2)c1 | inactive: -5.86% | – |
| COc1ccc(NC(=O)C2(C)CCN2Cc2ccc(OC)c3ccccc23)cc1OC (centres undefined) | – | active: 23.1 µM |
| Cc1cccc(NC(=O)C2CCCN(S(=O)(=O)c3cccc4nsnc34)C2)n1 (centres undefined) | – | inconclusive: 32.6 µM [inhibitor, single point] |
| Cc1nc(C(F)(F)F)ccc1C(=O)N1CCCC(C)(C(=O)O)C1 (centres undefined) | inactive: -9.54% | – |
| Nc1[nH]c(=O)nc2c1ncn2C1OC(CO)C(O)C1O (centres undefined) | – | inconclusive: 14.1 µM [inhibitor, single point] |
| CCOC(=O)C1=C(C)N=C2SCCC(=O)N2[C@@H]1c1cccs1 | inactive: -23.4% | – |
| C#CCN[C@@H]1CCc2ccccc21 | inactive: -6.35% | – |
| Cc1cc(C)c2nc(N3CCC(C(=O)NCCCN4CC(C)CC(C)C4)CC3)sc2c1 (centres undefined) | – | active: 23.1 µM |
| Cc1ccc(C(=O)NC2CCS(=O)(=O)C2)cc1S(=O)(=O)N1CCCC1 (centres undefined) | inactive: -1.05% | – |
| O=C(CN1CCCCCC1)Nc1ccc(F)c(F)c1 | inactive: -15.6% | – |
| Cc1ccc(-n2nc3c(N4CCCC(C(=O)NCCc5ccccc5)C4)nnc(C)c3c2C)cc1 (centres undefined) | – | active: 16.4 µM |

| SMILES | activity change, negative = growth inhibition | Potency |
| --- | --- | --- |
| Nc1ccc2c(c1)sc1ccccc12 | inactive: -4.48% | – |
| Cc1cccc(OCc2nc(-c3nonc3N)no2)c1C | – | inconclusive: 25.9 µM [inhibitor, partial curve] |
| CCOC(=O)Cc1cc(=O)n2[nH]c(C)c(-c3ccc(OC)cc3)c2n1 | – | inconclusive: 29.1 µM [inhibitor, single point] |
| O=C(/C=C/c1ccco1)NCC(=O)N/N=C/c1ccc(Cl)cc1 | – | inconclusive: 18.4 µM [inhibitor, single point] |
| C1COC(NC(C2CC2)C2CC2)=N1 | – | inconclusive: 29.9 µM [inhibitor, single point] and inconclusive: 33.5 µM [inhibitor, single point] and inconclusive: 29.1 µM [inhibitor, single point] |
| CN(C)c1ccc(C(=O)c2ccc(N(C)C)c(N)c2)cc1N | – | inconclusive: 18.4 µM [inhibitor, single point] |
| COc1cccc(C2NC(=O)NC(C)=C2C(=O)Nc2cccc(C)c2C)c1 (centres undefined) | inactive: 2.39% | – |
| O=C(NCc1ccccc1Cl)C1CCN(S(=O)(=O)c2cccs2)CC1 | – | inconclusive: 23.1 µM [inhibitor, single point] |
| O=C(/C=C/c1ccco1)NCC1OCCc2ccccc21 (centres undefined) | inactive: -3.32% | – |
| Cc1cc(Cl)ccc1OCCCC(=O)NC1CCN(C)CC1 | – | inconclusive: 29.1 µM [inhibitor, single point] |
| Cc1ccc(CNC(=O)Cn2ccn(-c3ccc(C)c(C)c3)c(=O)c2=O)cc1 | – | inconclusive: 23.1 µM [inhibitor, single point] |
| Cc1csc(SCc2nc3sc4c(c3c(=O)[nH]2)CCC4)n1 | – | inconclusive: 23.1 µM [inhibitor, single point] |
| O=C(N/N=C(\Cc1ncc[nH]1)c1ccccc1)c1ccncc1 | – | active: 4.61 µM |
| O=C(NC1CCCCC1)c1nc(-c2c(F)cccc2F)oc1-c1ccccc1 | – | active: 25.9 µM |
| OC[C@@H]1CN(Cc2cccs2)C[C@H](n2cnc3c(Nc4ccccc4)ncnc32)O1 | inactive: -25.5% | – |
| O=C(O)c1ccc(NC(=O)c2cn(-c3ccccc3)nc2-c2ccc(F)cc2)cc1 | – | inconclusive: 4.61 µM [inhibitor, full curve] |
| Cc1ccc(CCNC(=O)Cn2c(-c3cccs3)cc3cc(F)ccc32)cc1 | – | inconclusive: 20.6 µM [inhibitor, single point] |
| COc1ccc(CNC(=O)C[C@H]2C[C@H](C(=O)N(C(C)C)C(C)C)[C@@]3(C)c4[nH]c5cc(CCC(=O)N(C)C)ccc5c4CCN3C2=O)cc1OC | – | inconclusive: 10.3 µM [inhibitor, partial curve] |
| O=C(O)c1cccc(-c2csc(C(O)(c3ccccc3)C(F)(F)F)n2)c1 (centres undefined) | inactive: -5.65% | – |
| COc1ccc(-c2csc(NC(=O)C3CCCO3)n2)cc1 (centres undefined) | – | active: 20.6 µM |
| COc1cc(OC)c(OC)cc1NC(=O)CC1COc2ccccc2O1 (centres undefined) | inactive: -4.3% | – |
| O=C(c1ccccc1N1CCOCC1)N1CCCC(Nc2ccc(F)cc2)C1 (centres undefined) | inactive: -14.4% | – |
| Cc1c(C(=O)Nc2cccnc2)oc2ccc(Br)cc12 | – | inconclusive: 25.9 µM [inhibitor, single point] |
| COc1cccc(C(=O)Nc2c(C(=O)NC(C)(C)C)oc3ccccc23)c1 | – | inconclusive: 29.1 µM [inhibitor, single point] |

Reference: PubChem BioAssay AID686978 (National Center for Advancing Translational Sciences (NCATS), 2013)
